This is one part of the list. Repeats are few or missing, and single values can be far off.
system: Salmonella enterica serovar Typhimurium SL1344; assay: bacterial growth OD600 after 18 h in MHB with 0.5 µg/mL polymyxin B; higher = more bacterial growth (less inhibition); details: 25 µM; polymyxin B 0.5 µg/mL; system: broth
Experimental: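 Secondary screen of the 553 primary hits at 25 µM. (i) S. Typhimurium SL1344 grown in Mueller-Hinton broth with 0.5 µg/mL polymyxin B, OD600 read after 18 h. (ii) SAFIRE assay: RAW 264.7 macrophages infected with S. Typhimurium sifB::gfp (MOI 30); compound added 2 h post-infection; cells fixed at 18 h; GFP-positive pixel fraction per macrophage imaged by confocal microscopy and expressed as % of DMSO control.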
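Note: polymyxin B level opens the outer membrane while sparing the inner membrane, with novobiocin wells as reference growth inhibitor.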

Row | SMILES | bacterial growth OD600
1 | CCOC(=O)C1(Cc2ccc(Cl)cc2)CCN(C(=O)C(C)n2nc(C)cc2C)CC1 (stereo not given) | -0.011
2 | CN1C(=O)CC(CC(=O)N(CCO)Cc2ccccc2)(c2ccc(-c3ccccc3)cc2)C1=O (stereo not given) | -0.001
3 | C=CCO[C@H]1[C@H](NC(=O)COC)c2ccccc2C12CCN(C(=O)/C=C/c1cc(F)ccc1F)CC2 | 0.492
4 | CC1CN(Cc2nc3ccccc3n2C)Cc2cc(Cl)ccc2O1 (stereo not given) | 0.002
5 | Cc1ccn(CCC(=O)N(Cc2ccncc2)Cc2cccc(OCCc3ccc(F)cc3)c2)n1 | 0.002

From the supplement of paper PMC12889115
